Laboratory results reported in paper PMC4336329 (PLoS ONE, 2015).
Screen size: about 310,000 compounds; about 2,200 (0.71%) showed an effect of 50% or more. The effect is printed as a negative number. The list shows a part of the results.

target: human ether-à-go-go-related gene (hERG) potassium channel (human, UniProt Q12809); assay: primary screen, population patch clamp on CHO cells stably expressing hERG
Sequence (Q12809 whole entry, looked up): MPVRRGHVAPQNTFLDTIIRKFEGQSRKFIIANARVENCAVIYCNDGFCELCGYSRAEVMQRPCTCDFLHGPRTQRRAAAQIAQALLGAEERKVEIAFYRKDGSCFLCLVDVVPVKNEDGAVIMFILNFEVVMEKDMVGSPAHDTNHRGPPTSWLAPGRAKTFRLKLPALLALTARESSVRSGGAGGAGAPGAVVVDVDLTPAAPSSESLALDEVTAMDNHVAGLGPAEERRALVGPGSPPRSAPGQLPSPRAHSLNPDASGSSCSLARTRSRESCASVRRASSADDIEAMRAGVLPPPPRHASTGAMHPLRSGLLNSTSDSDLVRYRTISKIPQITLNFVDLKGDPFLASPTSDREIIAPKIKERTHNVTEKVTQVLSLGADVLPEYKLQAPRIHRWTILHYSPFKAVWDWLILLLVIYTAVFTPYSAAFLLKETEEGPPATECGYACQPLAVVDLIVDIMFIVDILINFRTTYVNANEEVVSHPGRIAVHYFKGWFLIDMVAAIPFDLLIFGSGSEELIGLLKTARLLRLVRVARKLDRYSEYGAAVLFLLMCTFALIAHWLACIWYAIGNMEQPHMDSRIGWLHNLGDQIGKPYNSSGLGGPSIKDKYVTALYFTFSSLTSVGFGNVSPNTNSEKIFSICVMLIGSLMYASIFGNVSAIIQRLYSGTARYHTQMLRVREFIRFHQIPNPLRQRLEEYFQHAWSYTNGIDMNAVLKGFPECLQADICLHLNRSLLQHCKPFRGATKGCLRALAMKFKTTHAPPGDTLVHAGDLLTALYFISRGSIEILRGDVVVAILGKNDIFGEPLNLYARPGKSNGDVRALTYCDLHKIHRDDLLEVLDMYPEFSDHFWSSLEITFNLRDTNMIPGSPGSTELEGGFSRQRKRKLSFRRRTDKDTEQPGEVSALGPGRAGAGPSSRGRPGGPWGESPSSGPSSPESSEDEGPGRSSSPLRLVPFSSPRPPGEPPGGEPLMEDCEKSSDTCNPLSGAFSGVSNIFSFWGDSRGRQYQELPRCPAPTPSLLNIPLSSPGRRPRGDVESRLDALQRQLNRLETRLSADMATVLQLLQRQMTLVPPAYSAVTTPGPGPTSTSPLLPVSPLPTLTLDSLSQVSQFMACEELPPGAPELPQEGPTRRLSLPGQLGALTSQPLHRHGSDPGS

Structure (SMILES)	hERG current change (%, negative = inhibition) at 1uM [%]
CN1CCN(NC(=O)CSc2ccc(Cl)cc2Cl)CC1	11.9
C(=N\N(c1ccccc1)c1ccccc1)/c1ccccn1	10.6
O=C(CCc1ccccc1)Nc1nn[nH]n1	7.19
COc1ccc(C(=O)OCCCN(C)C)cc1OC	-0.465
CCC(NC(=O)c1oc2ccccc2c1COC)c1ccc(OC)cc1 (stereo not shown)	15.6
COCCSc1ccccc1C(=O)Nc1nnc(C)s1	2.81
O=C(Cc1cccs1)Nc1nnc(C2CC2)s1	14.2
Cc1ccc(NC(=O)Cc2sc(C)nc2-c2ccc(C)cc2)cc1	8.6
O=C(C[n+]1ccn(CCCNP2(=O)C=C(c3ccccc3)OC(c3ccccc3)=C2)c1)c1ccccc1.[Br-]	4.27
COc1ccc(Cn2c(O)cc(=O)[nH]c2=O)cc1	14.4
COc1cc(/C=N/NC(=O)c2cc(-c3cccc(OC(C)C)c3)nc3ccccc23)ccc1O	-2.48
CCCOCC1CC(CCc2nc(=S)[nH][nH]2)C(=O)O1 (stereo not shown)	13.1
CCc1c(C(=O)OC)nnc2cc(C)nn12	13.5
NC(=O)CN1C(=O)C(=O)N(Cc2ccc(F)cc2)C1=O	16.4
Cc1cccc2cc(CN(C(=O)c3cnccn3)C3CCCCC3)c(Cl)nc12	17.8
CCCOc1ccccc1/C=C1\SC(N2CCCCC2)=NC1=O	7.48
O=C1CC2(CCN(C(=O)C3CC(=O)N(c4ccc(F)cc4)C3)CC2)Oc2ccccc21 (stereo not shown)	-73.6
COc1ccc(S(=O)(=O)NC2CCCC2)cc1Br	8.08
COc1ccc(C(C)=O)cc1CN1C(=O)NC2(CCCCC2C)C1=O (stereo not shown)	3.83
Nc1nc(-c2ccccc2)nn1C(=O)Cc1ccccc1	14
O=C(CS(=O)(=O)c1cn(Cc2ccc(Cl)cc2)c2ccccc12)N1CCCCC1	14.4
O=C(NCc1ccco1)C1CCCN(S(=O)(=O)c2ccc(Cl)cc2)C1 (stereo not shown)	-5.62

Structure (SMILES)	hERG current change (%, negative = inhibition) at 1uM [%]
O=C(Cn1nc(Cc2ccncc2)c2ccccc2c1=O)N1CCN(C(=O)c2ccco2)CC1	-2.41
O=c1c2ccccc2nc(-c2ccccc2Cl)n1-c1cccc(O)c1	9.24
Cc1cc(SCNC(=O)c2ccccc2)ncn1	8.84
O=C(CSc1nnc(Cn2cnc3ccccc32)o1)c1ccccc1	9.46
CN(C(=O)COC(=O)c1ccc2c(c1)OCCO2)c1ccccc1	9.97
COc1ccc(OC)c(C(=O)c2coc3ccc(O)c(CN(C)C)c23)c1.Cl	9.87
COc1ccc(CCNC(=O)c2cc3c(F)cccc3s2)cc1OC	5.74
O=C(NCC1CCN(Cc2ccccc2F)CC1)Nc1cc(F)ccc1F	-32.1
CCOC(=O)c1cccc(NC(=O)CCS(=O)(=O)c2cccs2)c1	2.43
CCn1c(SCC(=O)Nc2ccc(OC)cc2OC)nc2nc3c(cc2c1=O)COC(C)(C)C3	8.13
COCC(=O)Nc1ccc(S(=O)(=O)Nc2ccccn2)cc1	21.6
COc1ccc(CCNC(=O)CSc2cc(=O)[nH]c(N)n2)cc1OC	7.12
Cc1ccc2c(c1)C(=C(C#N)C#N)C(=O)N2CCN1CCCCC1	12.4
CCOCCCNC(=O)C(c1ccc(OC)cc1)N(Cc1ccc2c(c1)OCO2)C(=O)CNC(C)=O (stereo not shown)	8.75
Cc1ccc(NC(=O)CCc2nnc3ccc(N4CCN(C)CC4)nn23)cc1F	5.81
Cc1cc(N2C(=O)C(O)=C(C(=O)c3cc4ccccc4o3)C2c2ccc(Cl)cc2)no1 (stereo not shown)	1.55
COc1ccc(NC(=O)CN2CCN(c3ccc(C)cc3C)CC2)cc1	1.72
Cc1ccc(-n2cc(CN3CCN(Cc4nccn4C)CC3)c(-c3ccc(F)cc3)n2)cc1	13.9
CCC(c1nnnn1C1CCCC1)N1CCN(c2ccccc2)CC1 (stereo not shown)	-0.0076
O=C(NC1CCCC1)C(c1cccs1)N(CC1CCCO1)C(=O)Cc1cccs1 (stereo not shown)	3.73
COc1ccc2[nH]cc(CC(=O)O)c2c1	10.7
COc1cc2ccc(=O)oc2cc1O	15.7

Structure (SMILES)	hERG current change (%, negative = inhibition) at 1uM [%]
Cc1cccnc1NC(=O)c1cccc(NC(=O)CC2SC(N3CCCCC3)=NC2=O)c1 (stereo not shown)	9.66
Cc1ccc2[nH]c3c(=O)n(N)c(C)nc3c2c1	14.2
CC(=O)C1=C(C)NC(=O)NC1c1ccc(Cl)cc1 (stereo not shown)	14.9
O=[N+]([O-])c1cc2c(cc1CN1CCN(c3ccc(F)cc3)CC1)OCO2	7.89
COCCn1c(=O)c2c(nc3n2CCCN3CCc2ccccc2)n(C)c1=O	-2.49
O=C1NC(=S)N(c2ccccc2)C(=O)/C1=C/c1ccco1	5.88
CC(=O)Oc1cc(O)c2c(c1)OC(c1ccc(OC(C)=O)c(OC(C)=O)c1)C(OC(C)=O)C2=O (stereo not shown)	6.57
Cn1c(C(=O)N2CCCC(C(=O)NCCN3CCOCC3)C2)cc2sccc21 (stereo not shown)	7.87
CC(C)NC(=S)NNc1ncnc2sc3c(c12)CC(C)(C)OC3	6.89
CC(C)(C)OC(=O)NC(CO)c1cn([C@@H](Cc2cc3ccccc3[nH]2)C(=O)N2CCN(C(=O)OC(C)(C)C)CC2)nn1 (stereo partly shown)	4.76
COC(=O)c1cccc(NC(=O)C(C)N2C(=O)c3ccccc3C2=O)c1 (stereo not shown)	11.2
COC(=O)C1=C(c2ccc(Cl)c(C(F)(F)F)c2)C[C@@H]2CC[C@H]1N2C(=O)NC(C)C	10.9
Cn1c(=O)c2c(nc(SCC(=O)NCc3ccc4c(c3)OCO4)n2Cc2ccc(Cl)cc2)n(C)c1=O	-6.76
Cc1ccnc(N2C3CCC2CC(O)(c2ccccc2)C3)n1 (stereo not shown)	15.6
Cc1cc(C)n2nc(C(=O)Nc3ccc4c(c3)OCCO4)nc2n1	13.3
CC(C)C(=O)Nc1nnc(S(=O)(=O)N2CCCCCC2)s1	19.5
CCOc1cc2[nH]c(=S)n(CCCOC)c(=O)c2cc1OCC	-15.1
COc1cccc(Nc2cc(C)c3ccccc3n2)c1	11.1
Cc1cc(C)n(-c2ccc(S(=O)(=O)N3CCOCC3)cc2[N+](=O)[O-])n1	-3.05
O=c1c2oc3ccccc3c2[nH]c(=S)n1-c1ccccc1	12.8
CSc1ccccc1NC(=S)Nc1ccc(S(N)(=O)=O)cc1	22
CCC(CC)c1nnc(NC(=O)CCc2ccc(OC)cc2)s1	11.9

Structure (SMILES)	hERG current change (%, negative = inhibition) at 1uM [%]
CCCCCCCC/C=C\CCCCCCCC(=O)NCCc1ccc(O)c(O)c1	12.8
COC(=O)c1[nH]c(C)c(/C(O)=C2\C(=O)C(=O)N(CCN3CCOCC3)C2c2cccnc2)c1C (stereo not shown)	-5.77
O=C(Nc1ccccc1)c1cccc(NC(=O)c2ccco2)c1	12.7
COc1ccc(/C=N/NC(=O)c2cc(=O)[nH]c3ccccc23)cc1OC	9.86
CCOc1ccc(S(=O)(=O)Nc2ccc(C(=O)NCCCN3CCOCC3)cc2)cc1	-4.89
COC(=O)c1ccc(N2Cc3ccccc3/C2=N\C(=O)Nc2ccccc2)cc1	10.8
COC(=O)C1=C(c2ccccc2OCc2ccccc2)C[C@@H]2CC[C@H]1N2C(=O)NCCOc1ccc(OC)cc1	15.4
COc1ccc(NC(=O)c2sc3cc(C(F)(F)F)cnc3c2-c2cccs2)cc1	-6.02
CCc1ccc(-c2csc(NC(=O)C3=COCCO3)n2)cc1	11.6
Cc1cc2oc(C(=O)N(Cc3ccc(N(C)C)cc3)CC3CCCO3)c(C)c2cc1C (stereo not shown)	11.6
COc1cc(/C=C/C(=O)OCC(=O)NCc2ccccc2OC)ccc1O	9.6
Cn1c(=O)c2sccc2n(CC(=O)NCCC2=CCCCC2)c1=O	9.89
CCOC(=O)C(C(=O)OCC)[C@@H]1CS(=O)(=O)C[C@H]1C(C(=O)OCC)C(=O)OCC	4.59
COC(=O)c1ccc(C2C(C(=O)c3cc4ccccc4o3)=C(O)C(=O)N2CCN2CCOCC2)cc1 (stereo not shown)	26.7
CC(=O)c1cc(F)c(N2CCCCCC2)cc1C	14.9
O=C(N/N=C/C(Br)=C/c1ccccc1)c1ccncc1	8.43
Cc1ccc(-c2nnc(Nc3ccc(CC(N)=O)cc3)c3ccccc23)cc1	1.45
CCc1nnc2c3cnn(-c4ccccc4)c3ncn12	12.2
CC(C)N(CCCNC(=O)Cn1c(=O)c2cccn2c2ccc(F)cc21)Cc1ccccc1	-3.05
Cc1cc(C)nc(Nc2n[nH]c(-c3ccccc3N)n2)n1	12.4
COC(=O)c1sc(NC(=O)c2cnccn2)c(C(=O)OC)c1C	9.32
O=C(Nc1ccccc1Cl)C1CCCN(S(=O)(=O)c2cccc3cccnc23)C1 (stereo not shown)	17.3
